Where two headings read alike, the source gives them in different places. These are yes or no findings as the source states them, for the method shown. Binding seen in cells or lysates may run through a third protein. Some results given as binding are weak or reduced against the parent protein; the word gives no strength. For some of these results: Tags and fused reporters may be left off the sequences shown. Each block holds one molecule with its values, some of them ahead of it.
Columns and labels:
[1] = molecular target: T1, FLAG-UPF1^WT (pCI-FLAG-UPF1) (UniProt Q92900); assay: co-IP
T1 sequence: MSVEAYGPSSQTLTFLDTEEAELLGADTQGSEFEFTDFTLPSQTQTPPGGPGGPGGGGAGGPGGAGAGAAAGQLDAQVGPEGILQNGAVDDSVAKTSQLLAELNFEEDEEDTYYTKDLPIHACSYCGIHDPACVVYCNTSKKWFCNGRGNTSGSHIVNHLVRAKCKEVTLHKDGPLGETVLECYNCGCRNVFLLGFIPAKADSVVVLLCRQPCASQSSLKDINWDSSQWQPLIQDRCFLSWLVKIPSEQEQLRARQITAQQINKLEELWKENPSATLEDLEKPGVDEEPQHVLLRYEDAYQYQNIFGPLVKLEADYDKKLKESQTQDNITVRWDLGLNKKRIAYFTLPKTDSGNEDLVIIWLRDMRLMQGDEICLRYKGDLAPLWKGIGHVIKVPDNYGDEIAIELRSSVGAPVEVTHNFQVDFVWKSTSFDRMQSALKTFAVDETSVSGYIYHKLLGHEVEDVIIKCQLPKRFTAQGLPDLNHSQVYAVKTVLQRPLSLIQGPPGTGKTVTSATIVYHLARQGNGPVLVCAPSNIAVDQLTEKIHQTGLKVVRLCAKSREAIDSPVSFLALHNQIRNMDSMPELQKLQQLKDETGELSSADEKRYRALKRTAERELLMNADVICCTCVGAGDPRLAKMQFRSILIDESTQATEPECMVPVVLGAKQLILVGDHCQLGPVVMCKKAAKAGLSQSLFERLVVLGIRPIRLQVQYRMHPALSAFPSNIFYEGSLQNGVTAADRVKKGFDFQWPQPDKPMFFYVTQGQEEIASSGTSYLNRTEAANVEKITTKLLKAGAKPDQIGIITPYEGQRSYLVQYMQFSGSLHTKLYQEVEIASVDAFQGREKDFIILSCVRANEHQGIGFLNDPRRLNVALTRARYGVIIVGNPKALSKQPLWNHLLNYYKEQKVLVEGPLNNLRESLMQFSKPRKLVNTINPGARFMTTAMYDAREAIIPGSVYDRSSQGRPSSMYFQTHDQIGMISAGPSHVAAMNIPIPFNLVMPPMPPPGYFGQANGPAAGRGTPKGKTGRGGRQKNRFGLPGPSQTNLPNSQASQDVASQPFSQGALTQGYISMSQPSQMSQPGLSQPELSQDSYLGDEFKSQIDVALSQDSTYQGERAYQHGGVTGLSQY

Protein sequences, listed by entry. Tags and fused reporters are not part of them. Lines headed by an entry give the natural chain unless they say otherwise; changes in a name come on top. Residues count along the entry.
UniProt Q9HAU5: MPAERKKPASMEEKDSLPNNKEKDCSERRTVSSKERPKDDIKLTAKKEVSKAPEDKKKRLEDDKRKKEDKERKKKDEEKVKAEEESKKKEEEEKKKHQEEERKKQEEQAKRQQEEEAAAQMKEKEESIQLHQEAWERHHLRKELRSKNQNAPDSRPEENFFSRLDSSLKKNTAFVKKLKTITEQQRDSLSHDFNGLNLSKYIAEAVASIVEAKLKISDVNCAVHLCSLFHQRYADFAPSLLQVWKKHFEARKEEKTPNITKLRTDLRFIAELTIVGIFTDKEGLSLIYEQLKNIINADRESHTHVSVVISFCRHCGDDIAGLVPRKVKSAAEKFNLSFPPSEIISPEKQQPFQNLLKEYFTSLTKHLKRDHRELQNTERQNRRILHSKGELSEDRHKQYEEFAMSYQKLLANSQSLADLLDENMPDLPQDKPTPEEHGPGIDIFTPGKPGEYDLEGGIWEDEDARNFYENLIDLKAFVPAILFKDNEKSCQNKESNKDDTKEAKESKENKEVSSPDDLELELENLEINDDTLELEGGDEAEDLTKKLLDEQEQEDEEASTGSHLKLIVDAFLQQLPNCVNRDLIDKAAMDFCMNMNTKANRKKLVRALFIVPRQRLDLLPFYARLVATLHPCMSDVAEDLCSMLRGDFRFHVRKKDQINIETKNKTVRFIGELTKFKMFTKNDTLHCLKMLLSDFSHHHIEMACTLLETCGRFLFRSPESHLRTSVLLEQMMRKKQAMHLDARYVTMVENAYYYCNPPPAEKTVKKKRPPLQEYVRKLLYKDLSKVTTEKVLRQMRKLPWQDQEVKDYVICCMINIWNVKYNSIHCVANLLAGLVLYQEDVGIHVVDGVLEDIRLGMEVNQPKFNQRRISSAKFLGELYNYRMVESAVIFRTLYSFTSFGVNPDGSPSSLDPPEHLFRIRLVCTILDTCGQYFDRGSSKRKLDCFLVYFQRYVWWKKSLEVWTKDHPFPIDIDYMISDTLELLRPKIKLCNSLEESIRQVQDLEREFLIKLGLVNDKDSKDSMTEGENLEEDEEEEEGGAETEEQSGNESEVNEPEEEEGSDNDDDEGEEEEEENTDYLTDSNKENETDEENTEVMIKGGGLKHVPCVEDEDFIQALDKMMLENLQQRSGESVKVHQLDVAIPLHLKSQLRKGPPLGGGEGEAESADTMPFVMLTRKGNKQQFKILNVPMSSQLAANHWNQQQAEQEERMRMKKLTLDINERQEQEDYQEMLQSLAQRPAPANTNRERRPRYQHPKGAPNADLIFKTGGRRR
FLAG-UPF2^1–1096: residues 1-1096 of Q9HAU5
UniProt P04406: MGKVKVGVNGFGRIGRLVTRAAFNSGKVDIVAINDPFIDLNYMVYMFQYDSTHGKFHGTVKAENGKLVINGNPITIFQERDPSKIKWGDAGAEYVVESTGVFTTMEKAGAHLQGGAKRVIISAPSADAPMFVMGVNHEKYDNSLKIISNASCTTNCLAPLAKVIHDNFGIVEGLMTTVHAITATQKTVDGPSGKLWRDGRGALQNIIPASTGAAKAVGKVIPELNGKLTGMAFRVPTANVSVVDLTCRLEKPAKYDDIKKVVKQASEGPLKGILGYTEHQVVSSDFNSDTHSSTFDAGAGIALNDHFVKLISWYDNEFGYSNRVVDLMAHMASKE
UniProt O14980: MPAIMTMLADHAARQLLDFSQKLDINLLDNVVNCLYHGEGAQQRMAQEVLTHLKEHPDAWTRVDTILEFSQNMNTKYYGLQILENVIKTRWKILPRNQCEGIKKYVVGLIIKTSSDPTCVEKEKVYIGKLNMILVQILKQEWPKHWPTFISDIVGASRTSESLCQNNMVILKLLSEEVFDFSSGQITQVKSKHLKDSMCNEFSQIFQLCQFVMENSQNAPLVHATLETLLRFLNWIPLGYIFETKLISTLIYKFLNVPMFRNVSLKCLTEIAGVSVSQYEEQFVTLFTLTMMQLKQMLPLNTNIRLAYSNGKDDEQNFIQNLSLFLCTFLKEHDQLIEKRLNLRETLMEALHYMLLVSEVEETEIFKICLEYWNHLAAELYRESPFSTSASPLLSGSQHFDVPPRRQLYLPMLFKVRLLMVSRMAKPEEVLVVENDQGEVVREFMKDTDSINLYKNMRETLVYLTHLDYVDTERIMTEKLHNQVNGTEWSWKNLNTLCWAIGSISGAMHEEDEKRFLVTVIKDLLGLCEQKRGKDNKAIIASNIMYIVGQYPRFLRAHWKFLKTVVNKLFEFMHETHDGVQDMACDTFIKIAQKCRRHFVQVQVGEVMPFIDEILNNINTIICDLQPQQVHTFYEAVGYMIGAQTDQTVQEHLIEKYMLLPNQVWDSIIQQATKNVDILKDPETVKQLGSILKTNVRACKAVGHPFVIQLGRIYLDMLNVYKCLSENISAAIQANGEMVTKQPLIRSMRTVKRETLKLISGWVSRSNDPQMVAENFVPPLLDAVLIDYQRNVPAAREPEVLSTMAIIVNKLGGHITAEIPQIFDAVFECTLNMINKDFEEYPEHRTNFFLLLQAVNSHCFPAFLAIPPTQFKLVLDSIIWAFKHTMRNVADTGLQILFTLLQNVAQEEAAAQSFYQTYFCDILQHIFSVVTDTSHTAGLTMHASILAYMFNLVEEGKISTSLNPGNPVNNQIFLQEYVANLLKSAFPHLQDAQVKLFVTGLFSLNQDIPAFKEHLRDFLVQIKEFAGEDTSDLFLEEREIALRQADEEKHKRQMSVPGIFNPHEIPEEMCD
UniProt O00571: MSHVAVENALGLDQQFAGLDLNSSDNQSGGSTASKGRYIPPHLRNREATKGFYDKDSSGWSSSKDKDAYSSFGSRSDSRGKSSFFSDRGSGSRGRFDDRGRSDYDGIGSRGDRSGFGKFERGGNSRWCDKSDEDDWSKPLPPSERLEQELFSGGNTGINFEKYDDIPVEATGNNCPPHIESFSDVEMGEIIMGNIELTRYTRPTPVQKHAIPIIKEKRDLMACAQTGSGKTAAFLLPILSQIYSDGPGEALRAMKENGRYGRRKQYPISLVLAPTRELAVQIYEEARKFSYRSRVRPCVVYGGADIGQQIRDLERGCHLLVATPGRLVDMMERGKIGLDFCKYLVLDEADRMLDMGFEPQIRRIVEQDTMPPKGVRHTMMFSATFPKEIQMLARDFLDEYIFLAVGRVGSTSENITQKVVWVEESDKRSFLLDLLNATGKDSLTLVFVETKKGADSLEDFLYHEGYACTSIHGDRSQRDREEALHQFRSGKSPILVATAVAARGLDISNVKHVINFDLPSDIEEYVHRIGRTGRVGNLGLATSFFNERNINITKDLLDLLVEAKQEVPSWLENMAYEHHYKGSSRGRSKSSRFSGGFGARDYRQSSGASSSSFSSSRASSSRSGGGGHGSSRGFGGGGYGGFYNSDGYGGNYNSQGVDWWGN
UniProt P04618: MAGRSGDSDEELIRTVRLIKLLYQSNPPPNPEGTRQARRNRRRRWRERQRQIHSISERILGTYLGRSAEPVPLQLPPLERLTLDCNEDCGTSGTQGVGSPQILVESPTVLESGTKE
UniProt P37198: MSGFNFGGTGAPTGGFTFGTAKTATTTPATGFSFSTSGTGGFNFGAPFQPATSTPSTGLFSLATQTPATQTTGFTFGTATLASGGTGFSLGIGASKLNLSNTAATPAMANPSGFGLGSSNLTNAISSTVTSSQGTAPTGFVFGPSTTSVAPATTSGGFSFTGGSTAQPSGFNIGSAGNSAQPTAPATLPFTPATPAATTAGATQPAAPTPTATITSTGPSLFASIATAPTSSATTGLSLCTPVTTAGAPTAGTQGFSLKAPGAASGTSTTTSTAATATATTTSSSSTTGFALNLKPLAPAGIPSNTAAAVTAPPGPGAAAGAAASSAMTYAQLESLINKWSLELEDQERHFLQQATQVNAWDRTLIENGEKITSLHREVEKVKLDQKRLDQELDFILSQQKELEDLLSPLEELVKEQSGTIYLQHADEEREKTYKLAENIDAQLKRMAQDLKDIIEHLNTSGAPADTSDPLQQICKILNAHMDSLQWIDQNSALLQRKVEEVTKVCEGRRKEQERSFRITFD

FLAG-UPF3aL [2] = molecular target: T2, FLAG-UPF3aL (UniProt Q9H1J1); assay: co-IP
T2 sequence: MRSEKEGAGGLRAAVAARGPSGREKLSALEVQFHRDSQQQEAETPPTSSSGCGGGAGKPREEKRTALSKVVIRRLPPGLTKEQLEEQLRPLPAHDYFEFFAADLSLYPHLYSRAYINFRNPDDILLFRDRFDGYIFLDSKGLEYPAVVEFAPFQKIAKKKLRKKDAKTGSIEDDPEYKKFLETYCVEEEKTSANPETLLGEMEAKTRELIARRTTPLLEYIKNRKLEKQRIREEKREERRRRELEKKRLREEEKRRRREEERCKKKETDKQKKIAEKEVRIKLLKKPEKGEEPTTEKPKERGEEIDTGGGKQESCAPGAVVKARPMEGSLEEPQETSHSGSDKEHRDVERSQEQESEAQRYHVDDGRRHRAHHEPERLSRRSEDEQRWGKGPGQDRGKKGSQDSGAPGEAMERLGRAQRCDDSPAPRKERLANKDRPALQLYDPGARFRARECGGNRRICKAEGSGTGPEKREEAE

FLAG-UPF3aS [3] = molecular target: T3, FLAG-UPF3aS (UniProt Q9H1J1); assay: co-IP
T3 sequence: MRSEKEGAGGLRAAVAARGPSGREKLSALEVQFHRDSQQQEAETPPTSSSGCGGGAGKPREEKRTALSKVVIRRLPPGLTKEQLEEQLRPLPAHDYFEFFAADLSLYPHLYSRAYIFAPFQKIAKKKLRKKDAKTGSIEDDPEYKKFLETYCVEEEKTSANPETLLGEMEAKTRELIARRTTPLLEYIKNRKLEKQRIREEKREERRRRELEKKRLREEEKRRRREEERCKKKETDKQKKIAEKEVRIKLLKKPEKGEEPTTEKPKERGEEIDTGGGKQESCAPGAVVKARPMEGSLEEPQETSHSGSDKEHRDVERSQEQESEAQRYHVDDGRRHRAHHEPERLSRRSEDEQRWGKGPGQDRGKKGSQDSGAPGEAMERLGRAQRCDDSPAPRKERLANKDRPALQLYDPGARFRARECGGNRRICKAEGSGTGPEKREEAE

FLAG-UPF3b [4] = molecular target: T4, FLAG-UPF3b (UniProt Q9BZI7); assay: co-IP
T4 sequence: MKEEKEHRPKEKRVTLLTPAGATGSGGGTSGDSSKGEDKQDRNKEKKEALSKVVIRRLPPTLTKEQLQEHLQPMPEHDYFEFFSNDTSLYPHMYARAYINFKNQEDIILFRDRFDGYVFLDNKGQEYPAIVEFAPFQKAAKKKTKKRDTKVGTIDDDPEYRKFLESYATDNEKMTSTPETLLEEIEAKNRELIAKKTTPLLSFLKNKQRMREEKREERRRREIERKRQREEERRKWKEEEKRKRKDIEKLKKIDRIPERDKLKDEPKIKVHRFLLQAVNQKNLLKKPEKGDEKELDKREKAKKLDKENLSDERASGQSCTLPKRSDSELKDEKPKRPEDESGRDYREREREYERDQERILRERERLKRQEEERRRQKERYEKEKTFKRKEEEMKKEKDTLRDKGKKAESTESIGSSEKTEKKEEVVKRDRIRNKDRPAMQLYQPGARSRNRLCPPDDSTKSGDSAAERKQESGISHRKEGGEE

[5] = molecular target: T1, FLAG-UPF1^WT (pCI-FLAG-UPF1); assay: co-IP + co-sedimentation
[6] = molecular target: T1, FLAG-UPF1^WT (pCI-FLAG-UPF1); assay: co-IP; remark: listed apart in the source
FLAG-UPF2^1–1096 = FLAG-UPF2^1–1096 (UniProt Q9HAU5); assay: co-IP
FLAG-UPF2^WT = FLAG-UPF2^WT (UniProt Q9HAU5); assay: co-IP
FLAG-UPF3aL [7] = molecular target: T2, FLAG-UPF3aL; assay: co-IP; remark: listed apart in the source
FLAG-UPF3aS [8] = molecular target: T3, FLAG-UPF3aS; assay: co-IP; remark: listed apart in the source
FLAG-UPF3b [9] = molecular target: T4, FLAG-UPF3b; assay: co-IP; remark: listed apart in the source

binding [1]: no binding
Molecule: GAPDH (from UniProt P04406 1-335)

binding [1]: binds | binding (FLAG-UPF3aL [2]): binds | binding (FLAG-UPF3aS [3]): no binding | binding (FLAG-UPF3b [4]): binds
Molecule: UPF2 (endogenous) (from UniProt Q9HAU5 1-1272)

binding [1]: binds | binding [5]: binds
Molecule: CRM1 (Chromosomal Maintenance 1) (from UniProt O14980 1-1071)

binding [6]: binds | binding (FLAG-UPF2^1–1096): binds | binding (FLAG-UPF2^WT): binds | binding [5]: binds
B1: UPF3b (endogenous) (protein, UniProt Q9BZI7 1-483)
chain: MKEEKEHRPKEKRVTLLTPAGATGSGGGTSGDSSKGEDKQDRNKEKKEALSKVVIRRLPPTLTKEQLQEHLQPMPEHDYFEFFSNDTSLYPHMYARAYINFKNQEDIILFRDRFDGYVFLDNKGQEYPAIVEFAPFQKAAKKKTKKRDTKVGTIDDDPEYRKFLESYATDNEKMTSTPETLLEEIEAKNRELIAKKTTPLLSFLKNKQRMREEKREERRRREIERKRQREEERRKWKEEEKRKRKDIEKLKKIDRIPERDKLKDEPKIKVHRFLLQAVNQKNLLKKPEKGDEKELDKREKAKKLDKENLSDERASGQSCTLPKRSDSELKDEKPKRPEDESGRDYREREREYERDQERILRERERLKRQEEERRRQKERYEKEKTFKRKEEEMKKEKDTLRDKGKKAESTESIGSSEKTEKKEEVVKRDRIRNKDRPAMQLYQPGARSRNRLCPPDDSTKSGDSAAERKQESGISHRKEGGEE

More lines, now with the values behind:

Molecule: DDX3 (from UniProt O00571 1-662)
binding [1]: binds

Molecule: Rev-R-YC (Rev expressor) (from UniProt P04618 1-116)
binding [1]: binds

Molecule: nucleoporin p62 (Nup62) (from UniProt P37198 1-522)
binding [1]: binds

B2: UPF1 (endogenous) (protein, UniProt Q92900 1-1129)
chain: MSVEAYGPSSQTLTFLDTEEAELLGADTQGSEFEFTDFTLPSQTQTPPGGPGGPGGGGAGGPGGAGAGAAAGQLDAQVGPEGILQNGAVDDSVAKTSQLLAELNFEEDEEDTYYTKDLPIHACSYCGIHDPACVVYCNTSKKWFCNGRGNTSGSHIVNHLVRAKCKEVTLHKDGPLGETVLECYNCGCRNVFLLGFIPAKADSVVVLLCRQPCASQSSLKDINWDSSQWQPLIQDRCFLSWLVKIPSEQEQLRARQITAQQINKLEELWKENPSATLEDLEKPGVDEEPQHVLLRYEDAYQYQNIFGPLVKLEADYDKKLKESQTQDNITVRWDLGLNKKRIAYFTLPKTDSGNEDLVIIWLRDMRLMQGDEICLRYKGDLAPLWKGIGHVIKVPDNYGDEIAIELRSSVGAPVEVTHNFQVDFVWKSTSFDRMQSALKTFAVDETSVSGYIYHKLLGHEVEDVIIKCQLPKRFTAQGLPDLNHSQVYAVKTVLQRPLSLIQGPPGTGKTVTSATIVYHLARQGNGPVLVCAPSNIAVDQLTEKIHQTGLKVVRLCAKSREAIDSPVSFLALHNQIRNMDSMPELQKLQQLKDETGELSSADEKRYRALKRTAERELLMNADVICCTCVGAGDPRLAKMQFRSILIDESTQATEPECMVPVVLGAKQLILVGDHCQLGPVVMCKKAAKAGLSQSLFERLVVLGIRPIRLQVQYRMHPALSAFPSNIFYEGSLQNGVTAADRVKKGFDFQWPQPDKPMFFYVTQGQEEIASSGTSYLNRTEAANVEKITTKLLKAGAKPDQIGIITPYEGQRSYLVQYMQFSGSLHTKLYQEVEIASVDAFQGREKDFIILSCVRANEHQGIGFLNDPRRLNVALTRARYGVIIVGNPKALSKQPLWNHLLNYYKEQKVLVEGPLNNLRESLMQFSKPRKLVNTINPGARFMTTAMYDAREAIIPGSVYDRSSQGRPSSMYFQTHDQIGMISAGPSHVAAMNIPIPFNLVMPPMPPPGYFGQANGPAAGRGTPKGKTGRGGRQKNRFGLPGPSQTNLPNSQASQDVASQPFSQGALTQGYISMSQPSQMSQPGLSQPELSQDSYLGDEFKSQIDVALSQDSTYQGERAYQHGGVTGLSQY
binding (FLAG-UPF2^1–1096): no binding | binding (FLAG-UPF2^WT): binds | binding (FLAG-UPF3aL [7]): binds | binding (FLAG-UPF3aS [8]): binds | binding (FLAG-UPF3b [9]): binds

Reference: PMC4693258
